Results published in PMC4336329 (PLoS ONE, 2015).
The campaign covered roughly 310,000 compounds. About 2,200 (0.71%) showed an effect of 50% or more. Effects have a minus sign here. The list shows a part of the results.

Target: human ether-à-go-go-related gene (hERG) potassium channel (human, UniProt Q12809)
Assay: primary screen, population patch clamp on CHO cells stably expressing hERG

human ether-à-go-go-related gene (hERG) potassium channel, sequence (Q12809 whole entry, looked up): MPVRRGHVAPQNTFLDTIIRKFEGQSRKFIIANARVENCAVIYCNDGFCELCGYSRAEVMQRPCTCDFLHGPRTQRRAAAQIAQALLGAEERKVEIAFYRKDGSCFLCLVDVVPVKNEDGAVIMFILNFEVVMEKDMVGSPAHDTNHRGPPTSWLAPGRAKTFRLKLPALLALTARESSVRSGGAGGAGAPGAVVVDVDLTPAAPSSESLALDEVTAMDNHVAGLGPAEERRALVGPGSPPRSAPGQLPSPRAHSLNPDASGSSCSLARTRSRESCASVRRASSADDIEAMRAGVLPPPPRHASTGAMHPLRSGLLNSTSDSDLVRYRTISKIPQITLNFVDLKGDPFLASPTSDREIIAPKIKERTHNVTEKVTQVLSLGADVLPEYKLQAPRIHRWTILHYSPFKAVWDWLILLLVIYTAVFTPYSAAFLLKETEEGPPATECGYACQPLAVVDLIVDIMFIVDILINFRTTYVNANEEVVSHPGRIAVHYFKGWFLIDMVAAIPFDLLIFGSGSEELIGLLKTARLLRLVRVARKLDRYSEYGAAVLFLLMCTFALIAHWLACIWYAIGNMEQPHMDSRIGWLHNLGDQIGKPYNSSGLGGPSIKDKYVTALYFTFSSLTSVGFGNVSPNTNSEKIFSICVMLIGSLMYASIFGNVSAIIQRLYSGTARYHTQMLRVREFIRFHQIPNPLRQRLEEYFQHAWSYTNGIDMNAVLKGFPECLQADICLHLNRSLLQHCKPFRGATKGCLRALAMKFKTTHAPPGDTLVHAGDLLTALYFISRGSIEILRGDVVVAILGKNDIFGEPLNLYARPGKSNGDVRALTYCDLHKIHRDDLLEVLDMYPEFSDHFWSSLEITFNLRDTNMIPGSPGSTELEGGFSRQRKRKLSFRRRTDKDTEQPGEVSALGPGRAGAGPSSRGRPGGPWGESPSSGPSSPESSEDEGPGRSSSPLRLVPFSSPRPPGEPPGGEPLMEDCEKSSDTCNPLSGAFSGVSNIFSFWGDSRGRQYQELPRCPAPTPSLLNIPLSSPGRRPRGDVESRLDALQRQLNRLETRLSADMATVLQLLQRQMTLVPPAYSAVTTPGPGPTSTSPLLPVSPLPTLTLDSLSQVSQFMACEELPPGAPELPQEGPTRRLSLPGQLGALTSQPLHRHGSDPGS

| Structure (SMILES) | hERG current change (%, negative = inhibition) at 1uM |
| --- | --- |
| Cc1cccc(C)c1NC1=NC2(CCCCC2)N=C(N)N1 | 11.5% |
| CCC(C)c1ccc(C(C)NC(=S)NCc2ccc(F)cc2)cc1 (stereo not shown) | 8.46% |
| CN(CC(=O)Nc1ccccc1C(F)(F)F)C(=O)CSCc1ccccc1 | 7.51% |
| O=C1CCCCC1Sc1nnc(Nc2ccccc2)s1 (stereo not shown) | 3.7% |
| CC1CN(C(=S)Nc2ccccc2)CC(C)O1 (stereo not shown) | 9.63% |
| CCCCN(C(=O)c1ccc2c(c1)OCO2)c1c(N)n(CCCC)c(=O)[nH]c1=O | -4.48% |
| CCOc1cc(/C=N/NC(=O)c2cc(C)[nH]n2)ccc1OC(=O)c1ccc([N+](=O)[O-])cc1 | 14.3% |
| COc1ccc(C(=O)C2CCN(C(=O)Nc3ccccc3C)CC2)cc1 | 24.4% |
| O=C(COC(=O)c1cccs1)NCC1CCCO1 (stereo not shown) | 7.9% |
| O=C(Cn1nnc(-c2ccc3c(c2)OCO3)n1)NCc1ccccc1 | 14.2% |
| CCCCNC(=S)Nc1ccc(C(F)(F)F)cc1 | -9.25% |
| CCOC(=O)c1c(C)[nH]c(/C(C)=N/O)c1C | 10.5% |
| COc1ccc(CNC(=O)COC(=O)C2CCN(S(=O)(=O)c3ccccc3C(F)(F)F)CC2)cc1 | 5.01% |
| Cc1nc(C)c(/C(O)=C/c2nc3ccc([N+](=O)[O-])cc3oc2=O)o1 | 9.57% |
| Cc1cc(C(=O)COc2ncnc3sccc23)c(C)n1C | 9.96% |
| Cc1nc2nc(SCc3ccccc3)[nH]n2c(=O)c1CCC(C)C | 2.49% |
| CNC(=O)c1sccc1SCc1c(Cl)cccc1Cl | 9.99% |
| COc1ccc(CNC(=O)C2CCN(S(=O)(=O)N3CCOCC3)CC2)cc1 | -6.41% |
| Cc1ccc(SCc2c(C(=O)N/N=C/c3ccccc3)nnn2-c2nonc2N)cc1 | -5.4% |
| N#C/C(C(=O)NCc1ccco1)=C1/SC(Cc2ccc(F)cc2)C(=O)N1c1ccccc1 (stereo not shown) | 3.66% |
| CCOc1ccc(S(=O)(=O)N(C)c2ccc(OCC(=O)N3CCOCC3)cc2)cc1 | 8.09% |
| CCN(CC(=O)Nc1cccc(C(C)=O)c1)S(=O)(=O)c1ccc(OC)cc1 | 7.45% |
| CCCSc1nsc(SCCC)c1C#N | 12.5% |
| O=C1CC2(CCN(C(=O)C3CC(=O)N(c4ccccc4)C3)CC2)Oc2ccccc21 (stereo not shown) | -51.5% |
| O=C(CSc1nnc(CNC(=O)c2c(F)cccc2F)o1)Nc1ccc2c(c1)OCCO2 | 11.3% |
